The values that follow come from PubChem BioAssay AID1508624 (National Center for Advancing Translational Sciences (NCATS), 2021).

Among all 48,000 compounds or so, about 120 (0.25%) were called active. About 4% were inconclusive and are not listed. The call rests on the fitted dose curve; in most records, active means well fitted activation curve with a large enough effect; inconclusive means small, poorly fitted or top-dose-only effect, or another doubt; inactive means no such curve, though single readings can be large or run the other way. The list shows a part of the results.

The assay can be described thus: Primary qHTS for Identification of Small Molecule Activators of Huntingtin-Antisense Promoter Activity. Further: nearly all actives have a fitted effect of over 55% in size. The note with it: HEK293 HTT-AS promoter firefly luciferase reporter (activity 0% = vehicle and -100% = no light), 24 h; series mostly up to 57.5 µM; activity change, positive = activation: at the top concentration. An outline of the steps: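 Firefly luciferase readout (Dual-Glo, 10 min RT) after 24 h, 37 °C compound exposure (final up to 57.5 uM) of HEK293 reporter cells cultured 24 h beforehand; PTC124 at 50 uM final as control inhibitor; activity scaled vehicle 0%, zero RLU -100%.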
In general terms: qHTS replaces the single test concentration by a dilution series.
In the case of `COc1ccc(C(=O)NCc2cn3ccc(C)cc3n2)cc1`, the “activity change, positive = activation” value is inactive: -11.6%.
`CCCCN(C)C(=O)CCC(=O)NNc1nc2ccccc2c2nc(C)nn12`: the “activity change, positive = activation” value was inactive: -12.4%.
The value for `COc1cc2c(cc1OC)C(COc1cc(C)cc(C)c1)N(C(=O)C(C)(C)C)CC2` (configuration not stated) was inactive: -20%.
The figure for `Cc1oc(-c2cccc(Cl)c2)nc1Cn1c(SCc2ccc(F)cc2)nc2cccnc21` is inactive: -23%; for `Cc1cccc(N2CCn3c2nc2c3c(=O)n(CCCc3ccccc3)c(=O)n2C)c1` it is inactive: -14.4%.
The value for `COc1cc2c(C(=O)N(C)c3cccc(C(F)(F)F)c3)cn(CC(C)C)c(=O)c2cc1OC` was inactive: -18.4%; that for `Cc1ccc(C(c2sc3nc(-c4ccco4)nn3c2O)N2CCN(c3ccc(F)cc3)CC2)cc1` (configuration not stated) was inactive: -7.87%; that for `CCC(C)OC(=O)/C(C#N)=C/c1ccc(-c2ccc(Br)cc2)o1` (configuration not stated) was inactive: 6.88%.
For `O=C(CCCCCn1c(=O)c2sccc2n(CC(=O)Nc2ccccc2F)c1=O)NCc1ccc2c(c1)OCO2`, the “activity change, positive = activation” value was inactive: -19.4%.
The value for `Cc1ccc(C2CC(=O)Nc3c2c(C)nn3-c2nc(C)cc(C)n2)c(C)c1` (configuration not stated) was inactive: -2.33%; that for `Cc1cc2n(n1)CCCN2C(=O)Nc1ccccc1C(F)(F)F` was inactive: -1.29%.
On to `Cc1ccccc1C(=O)N1CCC(c2nc(-c3ccc(S(=O)(=O)N4CCCC4)cc3)no2)CC1`, for which the “activity change, positive = activation” value was inactive: -14.6%.
The value for `Cn1c(=O)oc2cc(S(=O)(=O)CCC(=O)NCc3ccc(Cl)cc3)ccc21` was inactive: -1.94%; that for `Cc1ccsc1CN(Cc1ccco1)c1cnc(S(C)(=O)=O)nc1C(=O)Nc1ccc(Cl)cc1` was inactive: -23.5%; that for `CC1CCN(C(=O)CN2CC(C)Sc3ccccc32)CC1` (configuration not stated) was inactive: -5.31%.
The value for `Cc1ccc(NC(=O)N2CC=C(c3c[nH]c4ccccc34)CC2)cc1Cl` was inactive: -17.5%.
The figure for `COc1ccc(-c2cn3nc(SCC(=O)Nc4cccc(C)c4C)ccc3n2)cc1` is inactive: -5.3%; for `CCOCCn1ccc2c(OCC(=O)Nc3cc(C)cc(C)c3)cccc2c1=O` it is inactive: -8.71%; for `Cc1cccc(C(=O)Nc2ccc(OCc3cc(=O)n4ccc(C)cc4n3)cc2)c1` it is inactive: -12.9%.
In the case of `Cc1ccc(NS(=O)(=O)c2ccc(-n3cccn3)cc2)c(Br)c1`, the “activity change, positive = activation” value is inactive: -36.4%.
Consider `COc1ccc(Nc2nc3ccccc3n3c(N)nnc23)cc1`, for which the “activity change, positive = activation” value is inactive: 21.2%.
The value for `O=C(Nc1ccc(F)c(F)c1)c1cc(S(=O)(=O)NC2CCCC2)ccc1F` was inactive: -30.7%; that for `Cc1cccc(N2CCN(CCCNc3ncnc4onc(-c5ccc(F)cc5)c34)CC2C)c1` (configuration not stated) was inactive: -41.8%; that for `CCCCc1ccc(NS(=O)(=O)c2ccc(C)c(C(=O)N3CCN(c4cccc(C)c4C)CC3)c2)cc1` was inactive: -19.9%.
The figure for `O=C(CCNS(=O)(=O)c1ccc2c(c1)CCN2C(=O)C1CC1)Nc1ccc(OC(F)(F)F)cc1` is inactive: -45.1%.
In the case of `COc1cccc(C(=O)Nc2ccc3nc(SCCOc4ccccc4)sc3c2)c1`, the “activity change, positive = activation” value was inactive: -27.4%.
The value for `CCc1ccc2oc(-c3cc(NC(=O)c4cccs4)ccc3Cl)nc2c1` was inactive: -7.75%.
